{"sequences": {"note": "Amino acid sequences for entries named in this document (tags omitted). A change or cut given only in a name is not applied to a line headed by its entry. Residues count along the entry.", "UniProt Q6UX71, residues 31-454": "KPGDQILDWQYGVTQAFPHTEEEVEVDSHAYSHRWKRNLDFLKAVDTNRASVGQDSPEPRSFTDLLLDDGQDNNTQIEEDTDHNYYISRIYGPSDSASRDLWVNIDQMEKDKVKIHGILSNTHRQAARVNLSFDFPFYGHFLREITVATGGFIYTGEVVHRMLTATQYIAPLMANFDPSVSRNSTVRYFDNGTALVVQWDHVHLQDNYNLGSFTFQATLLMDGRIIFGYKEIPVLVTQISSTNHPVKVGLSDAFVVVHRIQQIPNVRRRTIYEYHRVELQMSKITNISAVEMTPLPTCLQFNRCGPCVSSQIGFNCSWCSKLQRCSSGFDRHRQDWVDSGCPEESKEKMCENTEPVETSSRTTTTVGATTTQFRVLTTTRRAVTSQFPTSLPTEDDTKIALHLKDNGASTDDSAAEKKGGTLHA", "UniProt Q9DC11, residues 31-455": "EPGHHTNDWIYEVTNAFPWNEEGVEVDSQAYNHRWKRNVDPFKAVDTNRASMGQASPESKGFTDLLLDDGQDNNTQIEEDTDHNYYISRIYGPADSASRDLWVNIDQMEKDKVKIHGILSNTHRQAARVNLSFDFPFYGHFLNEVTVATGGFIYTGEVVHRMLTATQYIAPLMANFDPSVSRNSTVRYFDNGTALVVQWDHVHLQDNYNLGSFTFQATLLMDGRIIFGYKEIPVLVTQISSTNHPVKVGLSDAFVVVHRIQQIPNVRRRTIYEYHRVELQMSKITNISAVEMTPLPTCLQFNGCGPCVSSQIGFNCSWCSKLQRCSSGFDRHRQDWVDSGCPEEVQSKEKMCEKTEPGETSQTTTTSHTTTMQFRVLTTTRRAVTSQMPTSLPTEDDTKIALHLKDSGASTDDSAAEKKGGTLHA"}, "source": "paper PMC7902839", "molecules": {"B1": {"name": "human ADGRD1 (Adhesion G-protein coupled receptor D1) ectodomain (domain or fragment, UniProt Q6QNK2-4 26-600)", "chain": "VYSRSQDHPGFQVLASASHYWPLENVDGIHELQDTTGASRTHKLTVLPSRNATFVYSNDSAYSNLSATVDIVEGKVNKGIYLKEEKGVTLLYYGRYNSSCISKPEQCGPEGVTFSFFWKTQGEQSRPIPSAYGGQVISNGFKVCSSGGRGSVELYTRDNSMTWEASFSPPGPYWTHVLFTWKSKEGLKVYVNGTLSTSDPSGKVSRDYGESNVNLVIGSEQDQAKCYENGAFDEFIIWERALTPDEIAMYFTAAIGKHALLSSTLPSLFMTSTASPVMPTDAYHPIITNLTEERKTFQSPGVILSYLQNVSLSLPSKSLSEQTALNLTKTFLKAVGEILLLPGWIALSEDSAVVLSLIDTIDTVMGHVSSNLHGSTPQVTVEGSSAMAEFSVAKILPKTVNSSHYRFPAHGQSFIQIPHEAFHRHAWSTVVGLLYHSMHYYLNNIWPAHTKIAEAMHHQDCLLFATSHLISLEVSPPPTLSQNLSGSPLITVHLKHRLTRKQHSEATNSSNRVFVYCAFLDFSSGEGVWSNHGCALTRGNLTYSVCRCGHLTNFAILMQVVPLELARGHQVALSS", "modifications": "biotin (enzymatic, co-transfected secreted BirA; bait form only)"}, "B2": {"name": "pentraxin (PTX) domain of Adgrd1, truncated ectodomain (domain or fragment, UniProt Q80T32 111-305)", "chain": "KGVTFLYYGTYKSSCISNPAQCGPEGVTFSFFWKTQGDQTRPAPYAYGGQVVSDGFKVCSSGGKGSVELYTRDNSMTWKATFNPPGPYWTHVLFTWKSKEGLKVYVNGTLSTSDPSGKVSHTYGDPHVNLVIGSEQDQTKRYENGAFDEFIIWERALTPDEIKMYFTAAIGKHALLSSTPPAMPTAHTVIPTDAY"}}, "key": {"[1]": {"target": "T1, human ADGRD1 (Adhesion G-protein coupled receptor D1) ectodomain (human) (UniProt Q6QNK2)", "T1 sequence (chain, biotin (enzymatic, co-transfected secreted BirA; bait form only))": "B1 chain", "test": "AVEXIS; biotinylated monomeric baits (either purified or dialysed against PBS) immobilised on streptavidin-coated 96-well plates; pentameric beta-lactamase preys incubated one hour; washes in PBS/0.1% Tween-20; nitrocefin absorbance at 485 nm"}, "[2]": {"target": "human PLXDC2 (Plexin Domain-Containing Protein 2) ectodomain (human) (UniProt Q6UX71)", "test": "AVEXIS; biotinylated monomeric baits (either purified or dialysed against PBS) immobilised on streptavidin-coated 96-well plates; pentameric beta-lactamase preys incubated one hour; washes in PBS/0.1% Tween-20; nitrocefin absorbance at 485 nm"}, "[3]": {"target": "T2, human MRC1 ectodomain fused to human Fc (member of the single-transmembrane receptor library) (human) (UniProt P22897)", "T2 sequence": "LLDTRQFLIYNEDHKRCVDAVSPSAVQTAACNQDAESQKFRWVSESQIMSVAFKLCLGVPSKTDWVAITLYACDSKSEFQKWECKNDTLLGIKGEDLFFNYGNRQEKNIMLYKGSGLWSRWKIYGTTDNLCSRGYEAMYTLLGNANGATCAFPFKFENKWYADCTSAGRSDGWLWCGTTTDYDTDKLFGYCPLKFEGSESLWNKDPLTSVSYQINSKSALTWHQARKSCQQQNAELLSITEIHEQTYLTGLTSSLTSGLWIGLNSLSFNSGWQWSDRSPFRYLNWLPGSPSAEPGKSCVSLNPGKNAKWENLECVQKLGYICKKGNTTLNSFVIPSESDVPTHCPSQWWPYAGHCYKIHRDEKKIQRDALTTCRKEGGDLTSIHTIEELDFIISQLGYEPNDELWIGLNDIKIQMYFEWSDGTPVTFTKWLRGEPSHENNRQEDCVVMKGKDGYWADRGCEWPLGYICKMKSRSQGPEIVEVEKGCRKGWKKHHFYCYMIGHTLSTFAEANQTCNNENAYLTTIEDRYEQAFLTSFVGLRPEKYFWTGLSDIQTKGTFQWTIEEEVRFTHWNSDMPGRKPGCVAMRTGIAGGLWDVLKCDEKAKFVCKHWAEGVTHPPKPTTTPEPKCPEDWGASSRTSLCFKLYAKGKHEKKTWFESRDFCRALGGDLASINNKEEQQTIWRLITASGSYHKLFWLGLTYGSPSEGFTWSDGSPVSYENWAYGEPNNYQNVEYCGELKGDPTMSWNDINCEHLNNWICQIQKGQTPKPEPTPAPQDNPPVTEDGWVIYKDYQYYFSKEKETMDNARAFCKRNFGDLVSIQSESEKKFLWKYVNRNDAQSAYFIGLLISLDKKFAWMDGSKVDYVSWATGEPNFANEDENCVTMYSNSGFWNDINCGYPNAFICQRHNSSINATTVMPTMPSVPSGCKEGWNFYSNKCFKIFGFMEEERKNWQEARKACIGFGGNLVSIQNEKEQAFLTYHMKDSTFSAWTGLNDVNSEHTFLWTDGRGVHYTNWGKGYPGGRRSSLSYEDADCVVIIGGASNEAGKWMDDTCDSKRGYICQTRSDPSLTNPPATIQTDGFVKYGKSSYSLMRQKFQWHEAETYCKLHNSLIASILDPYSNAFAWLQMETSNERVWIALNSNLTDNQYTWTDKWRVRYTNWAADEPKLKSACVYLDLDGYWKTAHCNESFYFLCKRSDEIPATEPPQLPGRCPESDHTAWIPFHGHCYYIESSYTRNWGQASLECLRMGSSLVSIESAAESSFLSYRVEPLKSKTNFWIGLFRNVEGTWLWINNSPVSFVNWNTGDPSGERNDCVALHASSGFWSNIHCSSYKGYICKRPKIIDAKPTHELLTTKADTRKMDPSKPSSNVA", "test": "AVEXIS (automated 384-well Cell Surface Receptor Interaction screen); Fc-tagged receptor ectodomains from conditioned media captured on protein A-coated 384-well plates; beta-lactamase-tagged pentameric ADGRD1 probe 1 h at room temperature; PBS with Ca2+ and Mg2+; nitrocefin hydrolysis read at 485 nm, Z-scores"}, "[4]": {"target": "human PLXDC2 ectodomain fused to human Fc (member of the single-transmembrane receptor library) (human) (UniProt Q6UX71)", "test": "AVEXIS (automated 384-well Cell Surface Receptor Interaction screen); Fc-tagged receptor ectodomains from conditioned media captured on protein A-coated 384-well plates; beta-lactamase-tagged pentameric ADGRD1 probe 1 h at room temperature; PBS with Ca2+ and Mg2+; nitrocefin hydrolysis read at 485 nm, Z-scores"}, "[5]": {"target": "mouse Plxdc2 ectodomain (mouse) (UniProt Q9DC11)", "test": "AVEXIS; biotinylated monomeric baits (either purified or dialysed against PBS) immobilised on streptavidin-coated 96-well plates; pentameric beta-lactamase preys incubated one hour; washes in PBS/0.1% Tween-20; nitrocefin absorbance at 485 nm"}}, "note": "No constants are given. Whether binding was seen depends on the method and setting. Some results given as binding are weak or reduced against the parent protein; the word gives no strength. For some assays here: Tags and fused reporters may be left off the sequences shown.", "data": [{"molecule": "human PLXDC2 (Plexin Domain-Containing Protein 2) ectodomain (from UniProt Q6UX71-1 31-454) (domain or fragment)", "values": [{"measurement": "binding", "setting": "[1]", "result": "binds"}]}, {"molecule": "B1", "values": [{"measurement": "binding", "setting": "[2]", "result": "binds"}, {"measurement": "binding", "setting": "[3]", "result": "no binding"}, {"measurement": "binding", "setting": "[4]", "result": "binds"}]}, {"molecule": "B2", "values": [{"measurement": "binding", "setting": "[5]", "result": "binds"}]}]}
